# The supplement of paper PMC8728848
# This is one part of the list.
# B1: MRCL (Homo sapiens), NP_872425.1 (protein)
# chain: ATKVHFPFHTCDLRIDGDCFMVSSEADTYYRARMKCQRKGGVLAQIKSQKVQDILAFYLGRLETTNEVTDSDFETRNFWIGLTYKTAKDSFRWATGEHQAFTSFAFGQPDNHGLVWLSAAMGFGNCVELQASAAFNWNNQRCKTRNRYICQFAQEHISRWGPGS
# Key:
# Experiment in all cases: glycan array binding signal (z-score within array); higher = stronger binding
# Conditions in all cases: glycan notation: IUPAC condensed, linker removed
# Neu5Ac(a2-6)GalNAc = target: Neu5Ac(a2-6)GalNAc
# Summary of the method: (§1)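 The binding signal is a Z-score computed within each array. Data were drawn from 3228 arrays in the Consortium for Functional Glycomics database, restricted to those with a known protein sequence. Scores were averaged over arrays of the same protein sequence at different concentrations or buffers, and over linkers, and negative values can be taken as non-binding.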
# [1] = target: Neu5Ac(a2-6)GalNAc(b1-4)GlcNAc
# Summary of the method: as §1
# [2] = target: Neu5Ac(a2-6)GlcNAc(b1-4)GlcNAc
# Summary of the method: as §1
# [3] = target: Neu5Ac(a2-6)GlcNAc(b1-4)GlcNAc(b1-4)GlcNAc
# Summary of the method: as §1
# Neu5Ac(a2-8)Neu5Ac = target: Neu5Ac(a2-8)Neu5Ac
# Summary of the method: as §1
# [4] = target: Neu5Ac(a2-8)Neu5Ac(a2-3)Gal(b1-4)Glc
# Summary of the method: as §1
# [5] = target: Neu5Ac(a2-8)Neu5Ac(a2-3)[GalNAc(b1-4)]Gal(b1-4)Glc
# Summary of the method: as §1
# [6] = target: Neu5Ac(a2-8)Neu5Ac(a2-8)Neu5Ac
# Summary of the method: as §1
# [7] = target: Neu5Ac(a2-8)Neu5Ac(a2-8)Neu5Ac(a2-3)Gal(b1-4)Glc
# Summary of the method: as §1
# [8] = target: Neu5Ac(a2-8)Neu5Ac(a2-8)Neu5Ac(a2-3)[GalNAc(b1-4)]Gal(b1-4)Glc
# Summary of the method: as §1
# [9] = target: Neu5Ac(a2-8)Neu5Ac(a2-8)Neu5Ac(a2-8)Neu5Ac(a2-3)[GalNAc(b1-4)]Gal(b1-4)Glc
# Summary of the method: as §1
# [10] = target: Neu5Ac(b2-6)Gal(b1-4)GlcNAc
# Summary of the method: as §1
# Neu5Ac(b2-6)GalNAc = target: Neu5Ac(b2-6)GalNAc
# Summary of the method: as §1
# [11] = target: Neu5Ac9Ac(a2-3)Gal(b1-3)GlcNAc
# Summary of the method: as §1
# [12] = target: Neu5Ac9Ac(a2-3)Gal(b1-4)GlcNAc
# Summary of the method: as §1
# [13] = target: Neu5Ac9Ac(a2-6)Gal(b1-4)GlcNAc
# Summary of the method: as §1
# [14] = target: Neu5Gc(a2-3)Gal(b1-3)GlcNAc
# Summary of the method: as §1
# [15] = target: Neu5Gc(a2-3)Gal(b1-3)[Fuc(a1-4)]GlcNAc
# Summary of the method: as §1
# Neu5Gc(a2-3)Gal(b1-4)Glc = target: Neu5Gc(a2-3)Gal(b1-4)Glc
# Summary of the method: as §1
# [16] = target: Neu5Gc(a2-3)Gal(b1-4)GlcNAc
# Summary of the method: as §1
# [17] = target: Neu5Gc(a2-3)Gal(b1-4)[Fuc(a1-3)]GlcNAc
# Summary of the method: as §1
# [18] = target: Neu5Gc(a2-6)Gal(b1-4)GlcNAc
# Summary of the method: as §1
# Neu5Gc(a2-6)GalNAc = target: Neu5Gc(a2-6)GalNAc
# Summary of the method: as §1
# [19] = target: Neu5Gc(b2-6)Gal(b1-4)GlcNAc
# Summary of the method: as §1
binder,measurement,setting,value
B1,glycan array binding signal (z-score),Neu5Ac(a2-6)GalNAc,-0.575
same,glycan array binding signal (z-score),[1],2.86
same,glycan array binding signal (z-score),[2],-0.547
same,glycan array binding signal (z-score),[3],-0.52
same,glycan array binding signal (z-score),Neu5Ac(a2-8)Neu5Ac,-0.294
same,glycan array binding signal (z-score),[4],-0.323
same,glycan array binding signal (z-score),[5],-0.697
same,glycan array binding signal (z-score),[6],-0.413
same,glycan array binding signal (z-score),[7],0.302
same,glycan array binding signal (z-score),[8],0.167
same,glycan array binding signal (z-score),[9],1.56
same,glycan array binding signal (z-score),[10],-0.504
same,glycan array binding signal (z-score),Neu5Ac(b2-6)GalNAc,5.61
same,glycan array binding signal (z-score),[11],-0.498
same,glycan array binding signal (z-score),[12],-0.194
same,glycan array binding signal (z-score),[13],1.66
same,glycan array binding signal (z-score),[14],-0.561
same,glycan array binding signal (z-score),[15],0.542
same,glycan array binding signal (z-score),Neu5Gc(a2-3)Gal(b1-4)Glc,0.027
same,glycan array binding signal (z-score),[16],-0.638
same,glycan array binding signal (z-score),[17],-0.331
same,glycan array binding signal (z-score),[18],0.524
same,glycan array binding signal (z-score),Neu5Gc(a2-6)GalNAc,-0.317
same,glycan array binding signal (z-score),[19],0.163
